About 200 (0.44%) of roughly 45,000 compounds were called active. Another 7% or so got no clear call; they are omitted. Calls follow the shape of the dose curve; as a rule, active = well fitted activation curve with a large enough effect; inconclusive = small, poorly fitted or top-dose-only effect; inactive = no such curve, though single readings can be large or run the other way. The list shows a part of the results.
assay: qHTS of TDP-43 Inhibitors: NCGC Sytravon Library Screen; conditions: yeast TDP-43 toxicity rescue, BacTiter-Glo growth, 24 h; series mostly up to 46.1 µM; growth rescue (activation): at the top concentration; also: 0% is about no effect; nearly all actives have a fitted effect of over 55% in size
Summary of the method: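 TDP-43-expressing yeast, pregrown in raffinose, seeded at OD600 0.02 in galactose medium with compound for 24 hr at 30 deg C. Growth read by BacTiter-Glo luminescence, so rescue of toxicity appears as activation.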

| Structure (SMILES) | growth rescue (activation) |
| --- | --- |
| CC(C)N(C(=S)NC1CC2CCC1C2)c1ccccc1 (centres undefined) | inactive: 28.2% |
| O=C(COc1ccccc1Cl)Nc1nc(-c2ccncc2)cs1 | inactive: 17.8% |
| COc1ccc(CCN2C(=O)NC(NC(C)=O)(C(F)(F)F)C2=O)cc1OC (centres undefined) | inactive: -3.02% |
| COc1ccc(CN2CN(S(=O)(=O)c3ccccc3)c3nc4ccccc4nc32)cc1 | inactive: 10.4% |
| O=C(CSc1n[nH]c(-c2ccccc2O)n1)NC1CCCCC1 | inactive: -21.1% |
| CC1CCCCN1C(=O)c1cc2c(=O)n3ccccc3nc2s1 (centres undefined) | inactive: 12.9% |
| CN(C(=O)CSc1nnc(-c2ccco2)n1C)C1CCCCC1 | inactive: 1.56% |
| COc1ccc(CNC(=O)c2cccnc2Sc2ccc(C)c(C)c2)cc1 | inactive: -2.75% |
| CCN(C(=O)COC(=O)c1cc(OC)ccc1Br)C1CCS(=O)(=O)C1 (centres undefined) | inactive: -3.11% |
| CSCc1ccc(C(=O)Nc2cc(C)cc(C)c2)cc1 | inactive: 17% |
| Cc1ccc(NCc2cccn2-c2nnc(N3CCC(C(=O)NCCC(C)C)CC3)s2)cc1 | inactive: 6.44% |
| Cc1ccc(S(=O)(=O)NCc2ccc(C(=O)NCCN(Cc3ccccc3)C(C)C)cc2)cc1 | inactive: -1.38% |
| N/C(Cc1ccc(Cl)cc1Cl)=N\OC(=O)c1ccc(Br)o1 | inactive: -93.2% |
| COc1ccc(C(=O)N2CCC(n3c(C)nc4cc(F)ccc43)CC2)cc1 | inactive: 3.81% |
| CCOC(=O)/C(C)=N/Nc1nc(-c2ccc(NC(C)=O)cc2)cs1 | inactive: 7% |
| CCOC(=O)C(=O)N1c2ccccc2C(N(C(=O)C(=O)OCC)c2ccccc2)CC1C (centres undefined) | inactive: 16.7% |
| Cc1ccc(CN2CCNC(=O)C2CC(=O)N(C)CCc2cnn(C)c2)cc1 (centres undefined) | inactive: 20.3% |
| COc1ccc(NC(=O)c2n[nH]c(=O)c3ccccc23)cc1S(=O)(=O)N1CCCCC1 | inactive: -4.11% |
| COc1ccc([N+](=O)[O-])cc1NC(=O)CC1SC(=Nc2cccc(C)c2C)N(/N=C/c2cccc(OC)c2OC)C1=O (centres undefined) | inactive: 17.9% |
| CCc1cc2c(SCC(=O)NC3CCS(=O)(=O)C3)ncnc2s1 (centres undefined) | inactive: 7.25% |
| O=S(=O)(NC1CCCCC1Sc1ncccn1)c1ccc(Cl)cc1 (centres undefined) | inactive: 25.4% |
| COc1ccc(C(=O)NNC(=O)C(=O)NC2CCCCC2)cc1 | inactive: 9.07% |

| Structure (SMILES) | growth rescue (activation) |
| --- | --- |
| CN(C(=S)Nc1cccnc1)c1ccc(O)cc1 | inactive: -7.04% |
| COc1ccc(N(C(=O)COc2ccc(C)cc2)S(=O)(=O)c2ccc(C)cc2)cc1 | inactive: 22.5% |
| CS(=O)(=O)c1ccc(Cl)c(C(=O)NC2CCSc3ccccc32)c1 (centres undefined) | inactive: -11.3% |
| COCCNC(=S)N(C)C1(c2ccccc2Cl)CCCCC1=O (centres undefined) | inactive: 5.88% |
| Cn1cccc1-c1cc(C(=O)N/N=C/c2ccc([N+](=O)[O-])cc2)[nH]n1 | inactive: 12.8% |
| COc1ccc(-c2cnc3c(NC=O)cc(-c4ccc(S(C)(=O)=O)cc4)cn23)cc1OC | inactive: -8.35% |
| COC(=O)c1nn(-c2ccccc2)c(Sc2ccccc2)c1/C=N/O | inactive: -19.2% |
| Cc1cc(C)cc(Nc2c(F)c(F)c(F)c(F)c2C(=O)O)c1 | inactive: 4.53% |
| O=C1CC(c2ccccc2)CC2=C1C=Nc1ccccc1N2 (centres undefined) | inactive: 20.4% |
| CN1C/C(=C/c2cccs2)C(=O)/C(=C\c2cccs2)C1 | inactive: 4.26% |
| O=C(c1ccccc1)c1cccs1 | inactive: -4.02% |
| CCn1ccnc1CN(C)Cc1nc(-c2ccccc2)no1 | inactive: 14% |
| COc1ccc(NS(=O)(=O)c2cccc(NC(=O)CNC(C)=O)c2)cc1 | inactive: 10.6% |
| CCOC(=O)c1ccc(NC(=O)NCc2ccccc2)cc1 | inactive: 14.8% |
| O=C(NCc1ccccn1)c1cc(Br)ccc1Cl | inactive: 3.37% |
| O=C(CCN1CCN(Cc2ccccc2)CC1)Nc1ccccc1Cl | inactive: 20.5% |
| O=C(O)CC1Sc2nc3ccccc3n2C1=O (centres undefined) | inactive: 17% |
| Cn1c(SCC(=O)NNC(=O)Cc2ccccc2)nnc1-c1ccccc1 | inactive: 2.16% |
| COC(=O)C1=CN(C)C=C(C(=O)OC)C1c1ccsc1 | inactive: 11.1% |
| O=C(CNC(=O)C(c1ccccc1)c1ccccc1)N/N=C\c1ccc2c(c1)OCO2 | inactive: -2.98% |
| Cc1cc(C)cc(N(C(=O)c2ccccn2)C(C(=O)NC2CCCCC2)c2ccncc2)c1 (centres undefined) | inactive: -10.4% |
| Cc1ccc(NC(=O)Nc2c(C)[nH]c(=O)[nH]c2=O)cc1Cl | inactive: -13.5% |

| Structure (SMILES) | growth rescue (activation) |
| --- | --- |
| CCC(=O)OCc1cc(=O)oc2ccc3ccccc3c12 | inactive: -16.8% |
| CC(=O)N(Cc1cc(=O)[nH]c2ccccc12)c1ccc(C)cc1 | inactive: 5.82% |
| Cc1ccc(NC(=O)c2sc(C)nc2C)c(C)c1 | inactive: 13% |
| CC(=O)C1=C(C)NC2=C(C(=O)CC(C)(C)C2)C1C (centres undefined) | inactive: 7.05% |
| COCCSc1ccccc1C(=O)Nc1ccc(Cl)cn1 | inactive: 10% |
| O=C(NCCc1ccccc1)c1c(F)cccc1F | inactive: 20.1% |
| COc1ccc(NC2CCCN(C(=O)c3oc(C)cc3C)C2)cc1OC (centres undefined) | inactive: -3.19% |
| Cc1ccc(S(=O)(=O)N2CCN(C(=O)CCn3nc(C)c(C)c3C)CC2)cc1C | inactive: 5.79% |
| Cc1ccc(NS(=O)(=O)c2cccc(C(=O)N/N=C/c3ccc4c(c3)OCCO4)c2)c(C)c1 | inactive: 16.9% |
| CCCCn1cnc2cc(C)c(C)cc21 | inactive: 8.34% |
| COc1ccc(OCCC(=O)Nc2nccs2)cc1 | inactive: 18.8% |
| O=C(CCCC(=O)N/N=C\c1ccccn1)N/N=C\c1ccccn1 | inactive: 4.22% |
| O=C(c1cccc([N+](=O)[O-])c1)N1CCN(c2ccccn2)CC1 | inactive: 6.72% |
| COc1ccc(C(=O)Nc2ccc(NC(=O)CSc3nnc(-c4ccncc4)n3C)cc2)cc1 | inactive: 3.13% |
| CNc1ncnc2c1ncn2[C@H]1CN(Cc2ccc(-c3ccccc3)cc2)C[C@@H](CO)O1 | inactive: 7.02% |
| O=C(Nc1ccc(Cl)cc1F)c1ccccc1Br | inactive: 31% |
| O=C(/C=C/c1cn(-c2ccccc2)nc1-c1ccc2c(c1)OCCO2)NCCCN1CCOCC1 | inactive: 11.3% |
| CCCNC(=O)COC(=O)c1cc(C)nc2ccccc12 | inactive: 0.142% |
| COC(=O)c1cc2oc3ccccc3c2n1Cc1c(C)cc(C)cc1C | inactive: -6.68% |
| Cc1ccc(NC(=O)c2ccc3snnc3c2)cc1 | inactive: -3.06% |
| CCCOC(=O)CSc1nnc(-c2ccccc2Cl)o1 | inactive: 0.483% |
| CCCCN(C(=O)c1cnccn1)c1c(N)n(CCC)c(=O)[nH]c1=O | inactive: 8.37% |

| Structure (SMILES) | growth rescue (activation) |
| --- | --- |
| CCOC(=O)/C(C#N)=C/Nc1cc(OC)ccc1OC | inactive: 27.8% |
| COc1ccc(CNCc2ccncc2)c(OC)c1 | inactive: 12.8% |
| CC(O/N=C/c1ccc(OC(F)F)cc1)C(=O)Nc1cccc(S(=O)(=O)N2CCOCC2)c1 (centres undefined) | inactive: 16.6% |
| NC(=O)c1ccc(NC(=O)COC(=O)CCSc2ccccc2)cc1 | inactive: 7.66% |
| CC(C)CNC(=O)C1(C)CCCCCN1C(=O)c1cc(C#N)cs1 (centres undefined) | inactive: 11.3% |
| CC1(C)CC(=O)C(C=Nc2ccc(C(=O)c3ccccc3)cc2N=CC2=C(O)CC(C)(C)CC2=O)=C(O)C1 | inactive: -8.27% |
| C=CCNC(=O)c1ccc2c(c1)N(CC)C(=O)c1ccccc1S2 | inactive: 3.03% |
| O=C(Nc1cc(Cl)ccc1O)c1cc(-c2ccco2)on1 | inactive: 26.6% |
| COc1ccc(CCN(C)C(=O)c2cnc(C)cn2)cc1OC | inactive: 11.6% |
| COc1cc(NC(=O)NCCN2CCN(c3ccccc3)CC2)cc(OC)c1OC | inactive: 13.7% |
| CCOc1ccc(Br)cc1S(=O)(=O)Nc1ccc(S(=O)(=O)Nc2cc(C)on2)cc1 | inactive: 6.7% |
| Cc1ccc(S(=O)(=O)N2CCN(CCNC(=O)C(=O)NCc3ccccc3)CC2)cc1 | inactive: -13.6% |
| O=C(NC(=S)N1CCN(Cc2ccccc2)CC1)c1ccco1 | inactive: 11.6% |
| Cc1nsc(Nc2ccccc2)c1C#N | inactive: 11.5% |
| Cc1cc(=O)[nH]c(N/N=C/C=C/c2ccccc2)n1 | inactive: 12.1% |
| O=C(O)CCn1cc(/C=C2\NC(=S)N(c3ccccc3)C2=O)c(-c2ccc(Br)cc2)n1 | inactive: 14.5% |
| Cc1cc(=O)oc2cc(OCCC[n+]3ccccc3)ccc12 | inactive: 0.602% |
| Cc1ccccc1-c1noc(CNC(=O)c2ccco2)n1 | inactive: 26.3% |
| CC(C)[C@H](NC(=O)OCc1ccccc1)C(=O)OCC(=O)c1ccccc1 | inactive: 24% |
| O=C(CSc1nnc(C2CC2)n1Cc1ccccc1)N1CCNC1=O | inactive: 7.6% |
| Cc1ccc(S(=O)(=O)NC(=O)c2cc(C)n(CCCN3CCOCC3)c2C)cc1 | inactive: 18% |
| COc1ccccc1NC(=O)Cn1c(CCC(=O)O)ccc1-c1ccccc1 | inactive: -7.76% |

| Structure (SMILES) | growth rescue (activation) |
| --- | --- |
| COc1ccccc1C(=O)NC(=Nc1nc2ccccc2o1)NC(=O)c1ccccc1OC | inactive: 10.1% |
| c1ccc(CN2CC[C@@H](Nc3nccn4ccnc34)C2)cc1 | inactive: -11.3% |
| COCCCn1c(C(=O)NCCN2CCOCC2)cc2c(=O)n3ccccc3nc21 | inactive: 9.63% |
| CCOC(=O)c1ccc(N/C(=N\S(=O)(=O)c2ccc(F)cc2F)c2ccccc2)cc1 | inactive: 26.8% |
| Cc1cc(C)c(NC(=O)Cc2ccc(-n3cccc3)cc2)c(C)c1 | inactive: 15.3% |
| CCN(CC)C(=O)C(Sc1nnnn1-c1ccc(O)cc1)c1ccccc1 (centres undefined) | inactive: 11.6% |
| COc1ccc(C2c3c(C)nn(-c4ccccc4)c3NC(=O)N2c2ccccc2)cc1 (centres undefined) | inactive: 4.79% |
| CCOC(=O)C1=C(O)C(=O)N(Cc2cccnc2)C1c1ccc(OC)cc1 (centres undefined) | inactive: -6.96% |
| O=C(COC(=O)c1cccc(Br)c1)NCc1ccco1 | inactive: 18.5% |
| COCCN1CCN(C(=O)C2CCC(=O)N(Cc3cccc(C(F)(F)F)c3)C2)CC1 (centres undefined) | inactive: 18.9% |
| Cn1c(NCCc2ccncc2)nc2cc(-c3cccc(Cl)c3)sc2c1=O | inactive: 24% |
| Cc1cc(N/C(=N/S(=O)(=O)c2ccc(F)cc2)c2ccccc2)n(-c2ccccc2)n1 | inactive: 3.23% |
| CCCCc1nc2sc3c(=O)[nH]cnc3c2c2c1CCCC2 | inactive: -8.03% |
| COc1ccc(C(=O)Nc2ccccc2C(=O)N2CCCCCC2)cc1 | inactive: 21.4% |
| O=S(=O)(c1ccccc1)N(CC(O)CN1CCOCC1)c1ccccc1 (centres undefined) | inactive: 8.68% |
| CN(C)c1ccc(P(=O)(Nc2ccccc2)N2CCOCC2)c(NC(=O)c2cccs2)c1 (centres undefined) | inactive: -27.4% |
| CS(=O)(=O)c1ccc(NCCN2CCOCC2)c([N+](=O)[O-])c1 | inactive: 1.68% |
| O=C(c1cccc([N+](=O)[O-])c1)c1ccc2[nH]c(=O)[nH]c2c1 | inactive: 0.927% |
| Cc1cc(C)n(C(C)CNC(=O)c2ccc3c(c2)OCO3)n1 (centres undefined) | inactive: 5.64% |
| Cc1ccc(N2C(=O)CCC(C(=O)O)C2c2cccs2)cc1 (centres undefined) | inactive: -6.99% |
| COc1ccc(S(=O)(=O)Nc2ccccn2)cc1C(=O)Nc1ccccc1 | inactive: 0.927% |
